Screen size: about 310,000 compounds; about 2,200 (0.71%) showed an effect of 50% or more. The effect is printed as a negative number. The list shows a part of the results.
Target: human ether-à-go-go-related gene (hERG) potassium channel (human, UniProt Q12809)
Experiment: primary screen, population patch clamp on CHO cells stably expressing hERG

Sequence of human ether-à-go-go-related gene (hERG) potassium channel (Q12809 whole entry, looked up): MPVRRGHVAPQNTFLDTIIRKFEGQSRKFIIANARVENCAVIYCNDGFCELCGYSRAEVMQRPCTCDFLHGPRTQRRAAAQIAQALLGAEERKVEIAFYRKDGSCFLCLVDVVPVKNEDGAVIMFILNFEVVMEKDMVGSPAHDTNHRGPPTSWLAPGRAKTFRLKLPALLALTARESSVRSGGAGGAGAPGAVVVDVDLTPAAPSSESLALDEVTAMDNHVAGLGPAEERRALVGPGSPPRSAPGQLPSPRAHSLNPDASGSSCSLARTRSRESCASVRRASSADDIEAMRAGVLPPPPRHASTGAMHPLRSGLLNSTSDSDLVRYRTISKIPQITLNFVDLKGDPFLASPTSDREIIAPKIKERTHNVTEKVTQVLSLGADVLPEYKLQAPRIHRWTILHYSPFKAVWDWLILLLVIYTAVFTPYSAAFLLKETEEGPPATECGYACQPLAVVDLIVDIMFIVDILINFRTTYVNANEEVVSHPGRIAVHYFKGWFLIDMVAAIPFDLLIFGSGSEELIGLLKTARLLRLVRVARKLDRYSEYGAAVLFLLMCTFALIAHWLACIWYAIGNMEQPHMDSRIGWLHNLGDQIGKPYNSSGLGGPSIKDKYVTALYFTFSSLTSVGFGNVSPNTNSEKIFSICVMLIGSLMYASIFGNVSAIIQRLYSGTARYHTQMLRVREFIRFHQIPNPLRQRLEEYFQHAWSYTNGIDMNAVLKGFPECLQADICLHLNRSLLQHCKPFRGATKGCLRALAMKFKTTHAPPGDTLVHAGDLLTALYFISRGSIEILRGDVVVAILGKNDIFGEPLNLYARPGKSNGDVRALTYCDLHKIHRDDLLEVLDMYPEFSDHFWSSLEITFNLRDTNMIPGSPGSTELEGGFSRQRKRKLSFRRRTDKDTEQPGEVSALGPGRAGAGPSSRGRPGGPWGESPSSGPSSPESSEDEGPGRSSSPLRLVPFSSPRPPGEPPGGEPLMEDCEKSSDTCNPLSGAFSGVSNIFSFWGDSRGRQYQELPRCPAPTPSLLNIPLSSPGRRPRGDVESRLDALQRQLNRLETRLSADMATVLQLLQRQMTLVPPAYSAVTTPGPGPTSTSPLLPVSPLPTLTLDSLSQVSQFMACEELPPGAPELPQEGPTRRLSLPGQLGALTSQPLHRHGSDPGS

Compared with `O=C([O-])c1ncc(Cl)c(Cl)c1Cl.[NH4+]`, `O=C(/C=C/c1c(F)cccc1Cl)Nc1nc2ccccc2[nH]1` is lower in “hERG current change (%, negative = inhibition) at 1uM” value: 13.4% for the first, 9.99% for the second.

Compared with `O=C(NCCc1cccc(C(F)(F)F)c1)C1CCC(=O)N(Cc2ccc(Cl)cc2)C1` (centres unmarked), `O=C(NCc1ccc(Cl)cc1)C(=O)NCC1OCCN1S(=O)(=O)c1cccs1` (centres unmarked) is higher in “hERG current change (%, negative = inhibition) at 1uM” value: -4.65% for the first, 4.68% for the second.

First: CCCc1cc(=O)oc2cc(OCC(=O)Nc3ccccn3)ccc12
Second: COc1cccc2cc(-c3cc(=O)oc4ccc(OCC(C)=O)cc34)oc12
The “hERG current change (%, negative = inhibition) at 1uM” value of the first is lower: 9.97% for the first, 14.6% for the second.

First: COc1ccc(OCCCC(=O)Nc2ccc(OC)c(S(=O)(=O)N3CCOCC3)c2)cc1
Second: CCCCC(=O)Nc1ccc(C)c(S(=O)(=O)N2CCCCCC2)c1
The “hERG current change (%, negative = inhibition) at 1uM” value of the first is lower: 5.58% for the first, 7.77% for the second.

Going from `CCOc1ccc(CCNC(=O)COC(=O)c2ccco2)cc1OCC` to `CCN(CC(=O)NCCc1ccccc1)S(=O)(=O)c1ccc(Br)cc1`, the “hERG current change (%, negative = inhibition) at 1uM” value falls from 7.61% to 5.79%.

Compared with `CN(Cc1ccccc1)C(=O)Cn1c(=O)oc2cc(S(=O)(=O)NCc3ccccc3)ccc21`, `CC(C)(C)OC(=O)NOCC(=O)N(Cc1ccccc1)CC(O)COc1ccccc1` (centres unmarked) is higher in “hERG current change (%, negative = inhibition) at 1uM” value: 3.67% for the first, 12.7% for the second.

First: O=C(CNC(=O)c1cccs1)OCC(=O)c1cccs1
Second: Cc1ccc(NC(=O)Cn2nnc(C(=O)NCc3cccs3)c2N)cc1
The “hERG current change (%, negative = inhibition) at 1uM” value of the first is higher: 4.58% for the first, 3.75% for the second.

First: O=C(CCCn1c(=O)[nH]c2cc(Cl)ccc2c1=O)NCCCN1CCCC1=O
Second: CCOc1ccc(NC(=O)CSc2nc3ccsc3c(=O)n2CCC(=O)O)cc1
The “hERG current change (%, negative = inhibition) at 1uM” value of the first is higher: 1.72% for the first, 1.5% for the second.

Compared with `O=C(OCc1cc2ccccc2[nH]c1=O)c1ccccc1`, `O=C(N/N=C/c1c[nH]c2ccccc12)c1ccccc1` is higher in “hERG current change (%, negative = inhibition) at 1uM” value: 4.79% for the first, 16.2% for the second.

First: O=C(NCC1CCCO1)Nc1ccc(Cl)cc1 (centres unmarked)
Second: CCOC(=O)C1(CC2CCCCO2)CCN(C(=O)Nc2ccccc2SC)CC1 (centres unmarked)
The “hERG current change (%, negative = inhibition) at 1uM” value of the first is lower: -8.42% for the first, 10.6% for the second.

Compared with `COc1cc(C(O)P(=O)(OC2CCCCC2)c2ccc(N(C)C)cc2)cc(OC)c1OC` (centres unmarked), `COc1ccc2c(c1OC)C(=O)N1N=C(c3ccc(Br)cc3)CC21` (centres unmarked) is higher in “hERG current change (%, negative = inhibition) at 1uM” value: 0.907% for the first, 5.49% for the second.

First: CC1Cc2ccccc2N1C(=O)CSc1nnc(-c2ccc(S(=O)(=O)N3CCCC3)cc2)o1 (centres unmarked)
Second: N#Cc1ccc(NC(=O)Cn2cnc(S(=O)(=O)N3CCCCC3)c2)cc1
The “hERG current change (%, negative = inhibition) at 1uM” value of the first is lower: -4.54% for the first, 17.8% for the second.

Compared with `CC(C)c1ccc(OCC(=O)Nc2ccc(OC(F)(F)F)cc2)cc1`, `CCOc1ccc(N2C(=O)CC(Sc3nc(CC(C)C)ccc3C#N)C2=O)cc1` (centres unmarked) is higher in “hERG current change (%, negative = inhibition) at 1uM” value: 3.79% for the first, 14.5% for the second.

First: CCn1c(=O)cc(OCC(=O)N2CCC3(CC2)OCCO3)c2ccccc21
Second: COc1cccc2cc(C(=O)C3=C(O)C(=O)N(CCN4CCOCC4)C3c3cccc(Cl)c3)oc12 (centres unmarked)
The “hERG current change (%, negative = inhibition) at 1uM” value of the first is lower: 13.6% for the first, 14.6% for the second.

Going from `Cc1cc(C)n(CC(O)COc2ccc(C(C)C)c(C)c2)n1` (centres unmarked) to `Cc1ccc(OCCCc2c(C)n[nH]c2C)cc1`, the “hERG current change (%, negative = inhibition) at 1uM” value rises from 8.97% to 13.2%.

First: COc1ccc(OC)c(/C=C/C(=O)OCC(=O)c2c(N)n(C)c(=O)n(C)c2=O)c1
Second: COc1ccc(OC)c(CC(=O)O)c1
The “hERG current change (%, negative = inhibition) at 1uM” value of the first is lower: 1.23% for the first, 11.2% for the second.

Going from `CC(=O)c1c(C)[nH]c(C(=O)N2CCc3ccccc3C2)c1C` to `COc1ccc([N+](=O)[O-])c(OC)c1C(=O)NC(=O)Nc1c(C)cccc1C`, the “hERG current change (%, negative = inhibition) at 1uM” value rises from 4.27% to 9.29%.

Going from `OCC1(Cc2ccccc2C(F)(F)F)CCN(Cc2ccncc2)CC1` to `CCCCC(=O)N(Cc1ccc(-c2ccccc2-c2nn[nH]n2)cc1)[C@H](C(=O)O)C(C)C`, the “hERG current change (%, negative = inhibition) at 1uM” value rises from 10.1% to 17.9%.

Compared with `NC(=O)CSc1nnnn1-c1cccc(Cl)c1`, `C=CCSc1nnc2c(n1)-c1cccc3cccc-2c13` is lower in “hERG current change (%, negative = inhibition) at 1uM” value: 17.5% for the first, 10.4% for the second.

Going from `C=CCNc1nc(Cl)nc(Nc2ccc([N+](=O)[O-])cc2)n1` to `COc1ccc(-n2c(SCc3ccc([N+](=O)[O-])cc3)nnc2-c2ccc(C)cc2)cc1`, the “hERG current change (%, negative = inhibition) at 1uM” value rises from 5.98% to 21.1%.

Going from `O=C(CNC(=O)c1ccccc1F)N/N=C\C=C\c1ccccc1` to `CCOc1ccccc1NS(=O)(=O)c1ccc2[nH]c(=O)[nH]c2c1`, the “hERG current change (%, negative = inhibition) at 1uM” value rises from 7.95% to 15.7%.

Going from `Cc1ccc(NC(=O)O/N=C/c2c(C)nn(C(C)(C)C)c2C)cc1Cl` to `Cc1coc2c(C)c3oc(=O)cc(-c4ccccc4)c3cc12`, the “hERG current change (%, negative = inhibition) at 1uM” value rises from 3.27% to 12.1%.
